The chains are these.
B1: chr2:27656205:27656206:+_ENSG00000115216_ENST00000379852|hu_hu|FALSE|FALSE (ssRNA)
RNA: GGGAGUUCUACAGUCCGACGAUCACUGAUGUCAGGCCAGGAGCUGAAGAUGAGGAUUCUACCUUUGGGUCUGAGCCACUGCUAAGUACUGUCUGGGACUCCCCCUCCGACAUGCUGGAAGGAACACUCAGGCCUCCCGACUCCCAACAGAGGAUUGAGCAUCA
B2: chr2:66667028:66667029:+_ENSG00000143995_ENST00000407092|perfect_dup|FALSE|FALSE (ssRNA)
RNA: GGGAGUUCUACAGUCCGACGAUCCUCUGACGAGCAGACGUCCCCGCCCGCCACCCCCGGCUCGCGGGGGGUACAAGUAGCUAAUUCACAUUUCUCAAAAAUCAGUGCUAAGAGAGGGAAGAGGGGGUGUCCAUAAAUGGCAUCCAACAGAGGAUUGAGCAUCA
B3: chr8:104447970:104447971:+_ENSG00000164934_ENST00000297579|hu_hu|hu_hu_hu_mus_False|8_98 (ssRNA)
RNA: GGGAGUUCUACAGUCCGACGAUCAUACACUUCCCUGCUUCGACUUUUGUCCACAGGAAAGAUUCUAAUAGACUUAUCAAAGCUGGCAGACACAAAUUCCUUCCCAGUGGGAGAGUAGUCCACAUCAAGCACUGCAGACACGUGCAACAGAGGAUUGAGCAUCA
B4: chr3:41267201:41267202:+_ENSG00000168036_ENST00000349496|hu_mus|FALSE|FALSE (ssRNA)
RNA: GGGAGUUCUACAGUCCGACGAUCCAAGAAUUUCACGUUUGUUUUGUUGAGCAAAGCAACCAUUUUCUGCAGUCCACCAGCUAGGCGCACUGCCAUUUUAGCUCCUUCCUGAUGGAGCAGGAGAUUAUGCAGUGUCGUGAUGGCCAACAGAGGAUUGAGCAUCA
B5: chr12:93870747:93870748:+_ENSG00000198015_ENST00000552217|hu_mus|motif|central (ssRNA)
RNA: GGGAGUUCUACAGUCCGACGAUCGUCCACCUGGCAAUUGUAGUCAUCCGGAAGAGAAGAGUAUGUGGAUUUGUGACAAGCACGGGACAAAGCUCCGUUUUGGAUUGGAAGUAAAUGCUUCCAGAUAGUUCUGUUUGAUAUCGCCAACAGAGGAUUGAGCAUCA
B6: chr11:116399779:116399780:-_ENSMUSG00000020802_ENSMUST00000082152|mus_mus|motif|central (ssRNA)
RNA: GGGAGUUCUACAGUCCGACGAUCAGGGCUGCAGCCUCUCCUGGUGUCCUAUCCUCUCUUAGAGAGUAAGUUCAAUAGGCCGGAGGGCUAUAACGCACUGGCAGGCCAGAGCCAGCCACAGCAGCCACAGCUCCGAGAUGGAGGCAACAGAGGAUUGAGCAUCA

The list shows a part of the results.

The values that follow come from publication PMC12136788.

The assay concerns the target T1, UNK ZnF1-3 (human, UniProt Q9C0B0 31-174).
T1 sequence: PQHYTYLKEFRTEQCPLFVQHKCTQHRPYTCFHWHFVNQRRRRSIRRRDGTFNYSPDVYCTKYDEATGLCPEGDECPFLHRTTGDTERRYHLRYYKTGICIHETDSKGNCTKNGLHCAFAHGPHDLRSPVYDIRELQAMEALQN
Description: nsRBNS (natural sequence RNA bind-n-seq); RBNS binding buffer (assumed for nsRBNS): 25 mM Tris pH 7.5, 150 mM KCl, 3 mM MgCl2, 0.01% Triton X-100, 500 ug/ml BSA, 20 U/ml SUPERase-In, 4 C; UNK is unkempt and MSI1 is Musashi-1; names of the RNAs are library labels; protein concentration not given here; high values mean tight binding.
B1 gave a binding signal of 0.739 enrichment R. As for B2, the figure is 1.27 enrichment R. As for B3, the figure is 1.17 enrichment R.

Molecule B4 had a binding signal of 0.383 enrichment R. As for B5, the figure is 1.22 enrichment R; as for B6, 0.726 enrichment R.
